Assay results reported in the supplement of paper PMC12217912.
The list shows a part of the results. Sequences were assembled here from the parent chain. Inactive controls read about 0.05.

B1: TEV protease; numbered along this chain (parent)
chain: MGESLFKGPRDYNPISSSICHLTNESDGHTTSLYGIGFGPFIITNKHLFRRNNGTLVVQSLHGVFKVKDTTTLQQHLVDGRDMIIIRMPKDFPPFPQKLKFREPQREERICLVTTNFQTKSMSSMVSDTSCTFPSGDGIFWKHWIQTKDGQCGSPLVSTRDGFIVGIHSASNFTNTNNYFTSVPKNFMELLTNQEAQQWVSGWRLNADSVLWGGHKVFMVKPEEPFQPVKEATQL

Variants of: B1
Assay: raw area under fraction-flipped curve 0-4 h after induction (AUC4h, not background-subtracted), DNA-recorder readout of cleavage of the substrate (dimensionless); higher = more cleavage of the substrate by the protease variant
Conditions: temperature: 34 °C; time window: 0-4 h after rhamnose induction
Description: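 In vivo DNA recorder in E. coli TOP10(DE3) ΔrhaA at 34 °C. Each TEVp single-site mutant (parent TEVp 0) is paired with a single-site variant of the 7-mer TEVs (canonical ENLYFQ|S). The substrate sits between flexible linkers in a Bxb1-sfGFP-TEVs-SsrA fusion, so cleavage stabilises Bxb1 and speeds flipping of a recombination array, read by NGS. The value is the raw area under the fraction-flipped curve over 0-4 h after rhamnose induction (AUC4h), with ≥20 reads per time point. It is not background-subtracted; inactive controls average about 0.047.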
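Also: Bxb1 expression induced with 0.2% (w/v) L-rhamnose at OD600 near 0.5, cultures sampled hourly, flipped fraction per protease–substrate barcode pair counted by paired-end Illumina sequencing.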

Variant	area with substrate ENLCFQS	area with substrate ENLDFQS	area with substrate ENLEFQS	area with substrate ENLFFQS	area with substrate ENLHFQS	area with substrate ENLKFQS	area with substrate ENLNFQS	area with substrate ENLQFQS	area with substrate ENLSFQS	area with substrate ENLWFQS	area with substrate ENLLFQS	area with substrate ENLRFQS	area with substrate ENLGFQS	area with substrate ENLIFQS	area with substrate ENLMFQS	area with substrate ENLPFQS	area with substrate ENLVFQS	area with substrate ENLTFQS
F117L	0.0694	0.0857	0.0528	0.0714	0.0623	0.0751	0.0621	0.0645	0.0721	0.081								
K46N		0.0556		0.0468				0.0687	0.0602		0.0742	0.064						
S32C		0.0595	0.0623	0.0908	0.0668	0.0854	0.0593	0.0717	0.068			0.0697	0.0677	0.0898	0.0764	0.0538	0.0798	
Q74S		0.0564		0.0858	0.0607			0.0597	0.059	0.0697	0.0751	0.0719						
G150C	0.0497	0.0627		0.0706	0.0597	0.0662	0.0597	0.0605	0.0614	0.0459	0.068	0.0808	0.064	0.0557	0.0747	0.0479	0.0487	
W144G	0.0691	0.0561	0.0764		0.0693	0.0982	0.0578	0.0573		0.0645	0.0589						0.068	
K120V		0.0444	0.0685	0.0959	0.0631	0.0713	0.0625	0.0659	0.0735		0.0563	0.0703				0.0688	0.0873	
K120A		0.0577		0.0838	0.0716		0.0691		0.0208		0.0714	0.051			0.0669	0.0649		
K120D	0.0844	0.0562	0.0646			0.0643	0.0581		0.0734		0.0665		0.0804	0.0951		0.0691		
K120N	0.0495		0.0689	0.0772	0.0807	0.0766								0.0318			0.0437	
K120E	0.0735	0.082			0.0687	0.0753	0.0773		0.0779	0.0671		0.0672	0.0688			0.0653	0.0848	0.0709
K120C		0.0778	0.0596	0.0856	0.0585	0.0809	0.0664				0.0725		0.0687		0.0788	0.0703	0.102	0.0866
V64Y		0.0439		0.112	0.117		0.038		0.0837		0.06		0.0661		0.0803			
V64E		0.0649	0.048			0.081	0.0621									0.0323		
R106P		0.0701			0.0695	0.0756	0.0762					0.0761		0.0713				
H168P	0.0409	0.0552	0.0613	0.0775	0.0761				0.0696		0.0805			0.053				
G202C	0.0642	0.0466	0.0496	0.0582				0.0588							0.0785	0.0477		

Variant	area with substrate ENLCFQS	area with substrate ENLDFQS	area with substrate ENLEFQS	area with substrate ENLFFQS	area with substrate ENLHFQS	area with substrate ENLKFQS	area with substrate ENLNFQS	area with substrate ENLQFQS	area with substrate ENLSFQS	area with substrate ENLWFQS	area with substrate ENLLFQS	area with substrate ENLRFQS	area with substrate ENLGFQS	area with substrate ENLIFQS	area with substrate ENLMFQS	area with substrate ENLPFQS	area with substrate ENLVFQS	area with substrate ENLTFQS
D208L	0.043	0.0393	0.0705	0.0594	0.0697		0.0582	0.0652	0.0523			0.0645				0.0603		
P9Q		0.0564		0.0929		0.0927	0.0626		0.0679							0.0384		
Y34L		0.079	0.0505	0.0597	0.0641						0.0667	0.0693				0.0695		0.0581
E223L	0.0722	0.0638	0.067	0.0806	0.0658	0.0824	0.0618	0.0731	0.0581		0.0798	0.0844	0.0778	0.131	0.0825	0.063	0.0837	0.0565
G35K		0.0546				0.0442				0.032								
T176E	0.0737	0.0669	0.0796	0.0696	0.0415	0.0717	0.0577		0.0721	0.071	0.0621			0.0667		0.0621	0.0645	
K142Y	0.0846	0.0597	0.065		0.0611	0.0766	0.0749		0.0583	0.0657	0.0862					0.0565		
T192R	0.0759	0.0553	0.074	0.0742	0.0673	0.0614	0.0571		0.0594	0.0548	0.0665	0.0622			0.0655	0.0559		
S16F		0.0602		0.0689	0.0684	0.0665	0.0766	0.0777	0.0632	0.058	0.0829		0.0406	0.0863		0.0556		0.0676
F163H	0.08	0.0756	0.0619		0.0621	0.0733	0.0743			0.0478						0.0461	0.0957	
S18N		0.0697	0.0579	0.103	0.0556	0.0752	0.0735		0.0741	0.0771	0.0688		0.0618	0.0933				
S18M		0.0778	0.0655			0.0442	0.069		0.0691	0.0761				0.0762		0.0576	0.0749	
L112D	0.0527	0.0615	0.0577				0.0522	0.0575		0.0495	0.0297					0.0585		0.0692
L112G	0.0789	0.0652	0.0498	0.0616	0.0514	0.0644	0.047	0.0609	0.0492	0.0398	0.053	0.0639	0.0508	0.0877	0.0667	0.0594	0.0589	
N116C	0.0856	0.0537	0.069		0.0825	0.0702			0.062		0.0742					0.0628		
Q234G	0.0765	0.0643	0.0636	0.093	0.0344	0.0776	0.0365	0.071	0.0981		0.0854	0.0744		0.0822		0.065	0.108	
L235H	0.0907	0.0623				0.0788	0.0694		0.0641	0.0736	0.079					0.0646		
